# From PubChem BioAssay AID1347055 (National Center for Advancing Translational Sciences (NCATS), 2019)
# The whole screen tested about 54,000 compounds, of which about 120 (0.22%) were called active. The shares of active, inactive and inconclusive entries below differ from those in the screen. Calls come from the whole dose curve; as a rule, active = well fitted inhibition curve with a large enough effect; inconclusive = small, poorly fitted or top-dose-only effect, or effect the other way; inactive = flat fitted curve, though single readings scatter. Potencies of inconclusive entries are left out as doubtful fits.
# Target: Fumarate hydratase, mitochondrial (Homo sapiens) (UniProt P07954)
# Assay: Identification of activators of human fumarate hydratase by quantitative high-throughput screening; note: the screen sought activators but most active calls are inhibition curves; nearly all actives have a fitted effect of over 45% in size
# Settings: FH coupled MDH/diaphorase resazurin fluorescence, 15 min; activity change, negative = inhibition: at 79.9 µM (top of the series)
# % is set by controls: 0 for no effect and ±100 for the full control effect; potency is the fitted concentration of half-maximal effect; tags give direction and shape of the fitted curve.
# Chain of UniProt P07954 (P07954 whole entry, looked up): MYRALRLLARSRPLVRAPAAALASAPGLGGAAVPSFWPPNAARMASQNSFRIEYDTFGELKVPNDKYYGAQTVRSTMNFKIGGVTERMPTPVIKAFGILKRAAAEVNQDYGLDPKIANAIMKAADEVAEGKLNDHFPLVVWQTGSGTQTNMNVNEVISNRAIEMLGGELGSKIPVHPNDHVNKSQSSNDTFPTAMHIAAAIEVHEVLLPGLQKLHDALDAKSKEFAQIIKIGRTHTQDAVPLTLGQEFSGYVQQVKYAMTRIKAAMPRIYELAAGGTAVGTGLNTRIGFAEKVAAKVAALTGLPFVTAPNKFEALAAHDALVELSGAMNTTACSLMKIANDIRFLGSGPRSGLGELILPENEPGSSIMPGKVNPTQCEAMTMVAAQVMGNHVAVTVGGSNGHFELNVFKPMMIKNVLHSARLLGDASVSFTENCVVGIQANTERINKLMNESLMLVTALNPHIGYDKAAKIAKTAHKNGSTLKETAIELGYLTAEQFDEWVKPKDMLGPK
SMILES,Potency,"activity change, negative = inhibition"
Cc1ccc(Cn2c(C(=O)O)c(CNCc3ccc(OC(C)C)cc3)c3ccc(C)cc32)cc1,"inconclusive [inhibitor, partial curve]",
Cc1ccc(C(C)C)c(OCCSc2nc(-c3ccccc3F)nc3cc(=O)[nH]n23)c1,"inconclusive [inhibitor, single point]",
O=Nc1c(-c2c(O)[nH]c3ccccc23)[nH]c2ccccc12,,inactive: -15.5% [at 53.3 µM]
COc1cccc(CNC(=O)CCS(=O)(=O)c2ccc3c(c2)oc(=O)n3C)c1,"inconclusive [inhibitor, single point]",
N#CC(C#N)=C(N)/C(C#N)=C/c1ccc(O)cc1,"inconclusive [inhibitor, partial curve, poor fit]",
CCN(CC)c1ccc(NC(=O)c2cccn2-c2nnc(N3CCCCC3)s2)c(C)c1,"inconclusive [inhibitor, partial curve, poor fit]",
Cc1ccc(-n2cc(-c3ccccc3)c3c(N4CCCCC4)ncnc32)cc1,"inconclusive [inhibitor, partial curve, poor fit]",
COc1ccccc1CNC(=O)c1c[nH]c2ccc(S(=O)(=O)Nc3cc(C)cc(C)c3)cc2c1=O,"inconclusive [inhibitor, partial curve]",
O=C1CC(c2ccccc2)Sc2ccccc2N1Cc1ccc(F)cc1 (stereo not given),"inconclusive [inhibitor, single point]",
COc1cc2nc(N3CCN(C(=O)c4ccco4)CC3)nc(N)c2cc1OC,"inconclusive [inhibitor, partial curve, poor fit]",
O=C(CCc1nc(CN2CCN(S(=O)(=O)c3ccc(Br)cc3)CC2)no1)N1CCCCC1,"inconclusive [inhibitor, partial curve, poor fit]",
COc1cccc(Cn2cc(C(=O)c3ccccc3)c(=O)c3cc4c(cc32)OCO4)c1,"inconclusive [inhibitor, single point]",
O=C(NCc1cccc(Cl)c1)c1c2c(nc3ccccc13)C(=O)N(C1CCCCC1)C2,,inconclusive: -39.6% [inhibitor]
CCCn1cc(S(=O)(=O)c2ccc(C)cc2)c(=O)c2cc(F)c(N3CCCC3)cc21,"inconclusive [inhibitor, single point]",
COc1ccc(CC(=O)Nc2nc3c(s2)CC(C)CC3)cc1 (stereo not given),"inconclusive [inhibitor, single point]",
COc1ccc2c(c1)cc(CNc1ccc(OC)c(OC)c1)c(=O)n2CC(=O)Nc1ccccc1C,"inconclusive [inhibitor, partial curve]",
CC1OC(OC2C(OC(=O)[C@]34CCC(C)(C)C[C@H]3C3=CCC5[C@@]6(C)CC[C@H](OC7OC(C(=O)O)C(O)C(O)C7O)C(C)(C)C6CC[C@@]5(C)[C@]3(C)CC4O)OC(CO)C2O)C(O)C(O)C1OC1OCC(O)C(O)C1O (stereo not given in full),,inactive: 3.38% [at 20.6 µM]
COc1ccc(CCNC(=O)CCc2c(C)nc3c4c(C)cc(C)nc4nn3c2C)cc1OC,"inconclusive [inhibitor, partial curve]",
Cc1cccc(OCC(=O)Nc2nnc(S(=O)(=O)N3CCc4ccccc43)s2)c1,"inconclusive [inhibitor, partial curve, poor fit]",
CC1NC(=O)C(Cc2c[nH]c3ccccc23)NC1=O (stereo not given),,inactive: 4.62%

SMILES,Potency,"activity change, negative = inhibition"
c1ccc(C(NCCNC(c2ccccc2)c2ccccc2)c2ccccc2)cc1,"inconclusive [inhibitor, partial curve, poor fit]",
COc1ccc(-c2cc(C(F)(F)F)nc(NCCc3ccccc3)n2)cc1OC,,inactive: -14.8%
Cc1cc(-n2c(C)nc3ccccc3c2=O)ccc1NC(=O)c1ccccc1[N+](=O)[O-],,inactive: 1.79%
COc1ccc2c(CNCCc3cccs3)c(C(=O)O)n(Cc3ccc(F)cc3Cl)c2c1,"inconclusive [inhibitor, single point]",
CCCCN1CC(c2nc3ccccc3n2CCCCOc2cccc(C)c2C)CC1=O (stereo not given),"inconclusive [inhibitor, single point]",
Cc1ccc(SCc2nc(-c3ccc(C(=O)NCCc4ccc(Cl)cc4)cc3)oc2C)cc1,"inconclusive [inhibitor, partial curve, poor fit]",
Cc1ccc(-c2nc3sccn3c2Nc2ccc(C)c(C)c2)cc1,"inconclusive [inhibitor, single point]",
Cc1cc(N2CCCCC2)nc2ccc(NC(=O)CCC(=O)N3CCN(c4ccccc4)CC3)cc12,"inconclusive [inhibitor, partial curve, poor fit]",
CN(Cc1ccc(C(=O)O)cc1)c1ccc(OCc2c(-c3c(Cl)cccc3Cl)noc2C2CC2)nc1C(F)(F)F,active: 15.8 µM,
Cc1ccc(Cl)c2sc(N3CCN(C(=O)C4CC4)CC3)nc12,,inactive: -16.1%
COC(=O)c1c(NC(=O)c2ccc(S(=O)(=O)N3CCCC(C)C3)cc2)sc2c1CCN(C(C)C)C2 (stereo not given),,inactive: -13.3%
C=C1C(=O)O[C@@H]2[C@H]1CCC(C)=C(CCC(=O)O)[C@@]2(C)O,,inactive: 5.43%
COc1ccccc1Nc1cc(C)nc2nc(-c3ccccc3)nn12,,inactive: -4.36%
c1ccc(CNc2nc3ccccc3c3nc(-c4ccccc4)nn23)cc1,,inactive: -13.7%
O=C(N[C@H](Cc1ccccc1)C(=O)O)c1sc2cc(F)ccc2c1Cl,,inactive: 0.527%
CCn1c(C(=O)N2CCC(C(=O)N3CCN(c4cccc(C)c4C)CC3)CC2)cc2sccc21,"inconclusive [inhibitor, partial curve, poor fit]",
Cc1cccc(-c2nc(SCCCOc3ccccc3Cl)n3[nH]c(=O)cc3n2)c1,"inconclusive [inhibitor, single point]",
COc1ccccc1CNC(=O)C(=O)NCC(c1cccs1)S(=O)(=O)c1ccc(F)cc1 (stereo not given),"inconclusive [inhibitor, partial curve, poor fit]",
COc1ccccc1NC(=O)C1CCCN(c2nnc(C)c3c(C)n(-c4ccccc4)nc23)C1 (stereo not given),"inconclusive [inhibitor, partial curve, poor fit]",
COc1ccc2nc(N(Cc3cccnc3)C(=O)CCc3ccccc3)sc2c1,,inconclusive: -36.4% [inhibitor]

SMILES,Potency,"activity change, negative = inhibition"
COc1ccccc1NC(=O)CSc1nnc(-c2cccc(Cl)c2)o1,"inconclusive [inhibitor, partial curve, poor fit]",
C[C@@H](Nc1ncnc2[nH]c(-c3ccc(O)cc3)cc12)c1ccccc1,"inconclusive [inhibitor, partial curve, poor fit]",
O=C(NCc1ccc(F)cc1)C1CCN(C(=O)c2ccc(-n3ccc4ccccc43)s2)CC1,"inconclusive [inhibitor, single point]",
COC(=O)c1ccc(NC(=O)C2(S(=O)(=O)c3ccc(C)cc3)CC2)cc1,"inconclusive [inhibitor, partial curve]",
O=C(NCCc1ccccc1)c1ccc(CSc2nc3cccnc3n2Cc2ccc(F)cc2)cc1,,inactive: -21.6%
COc1cc(NC(=O)Cn2c(=O)n(Cc3ccccc3OC)c(=O)c3cccnc32)cc(OC)c1,"inconclusive [inhibitor, partial curve, poor fit]",
O=C(CC1N=C2c3ccccc3N=C(SCC(=O)Nc3cccc(C(F)(F)F)c3)N2C1=O)NCc1cccs1 (stereo not given),"inconclusive [inhibitor, partial curve, poor fit]",
CCc1ccccc1NC(=O)Nc1nnc(N2CCCC2)s1,,inactive: 4.39%
CCOC(=O)c1sc2ccccc2c1S(=O)(=O)Nc1ccc(N(C)C)cc1,"inconclusive [inhibitor, single point]",
COc1ccccc1CCNC(=O)c1ccc2c(c1)c(C)c(C)n2C,"inconclusive [inhibitor, partial curve, poor fit]",
COc1ccc(NC(=O)CSc2ncc(-c3ccc(Cl)cc3)[nH]2)cc1OC,"inconclusive [inhibitor, partial curve]",
Cc1cc(C)cc(N(CC(=O)Nc2ccc(C(F)(F)F)cc2)S(=O)(=O)c2c(C)[nH]c(=O)[nH]c2=O)c1,,inactive: -12.2%
CO[C@H]1C=C2C(CC[C@H](O[C@@H]3O[C@H](CO)[C@@H](O)[C@@H](O)[C@H]3O)C2(C)C)[C@]2(C)CC[C@]3(C)C([C@H](C)C(O)C(C=C(C)C)O[C@@H]4O[C@H](CO)[C@@H](O)[C@@H](O)[C@H]4O)CC[C@@]3(C)C12 (stereo not given in full),,inactive: 10.8% [at 20.6 µM]
CCOc1ccc(-n2c(-c3ccc(OC)cc3)cc3c2CC(C)(C)CC3=O)cc1,"inconclusive [inhibitor, partial curve, poor fit]",
Cc1oc(-c2ccc(C(=O)N(C)Cc3ccccc3)cc2)nc1CN1CCc2ccccc21,,inactive: -25.4%
COc1ccc(-n2c(=O)c3c4c(sc3n(Cc3ccccc3)c2=O)CCC4)c(OC)c1,"inconclusive [inhibitor, partial curve, poor fit]",
COc1ccc(-c2cc(C(F)(F)F)nc(NCc3ccccc3)n2)cc1OC,"inconclusive [inhibitor, single point]",
CSc1ccc(CCNC(=O)c2ccc3c(c2)nc2n3CCC(C)C2)cc1 (stereo not given),"inconclusive [inhibitor, partial curve]",
N#Cc1c2nc3ccccc3nc2n2ccc(NC(=O)c3cccs3)cc12,,inactive: 0.628%
CN1C(=O)c2ccccc2Sc2ccc(NC(=O)NCc3ccccc3Br)cc21,"inconclusive [inhibitor, partial curve]",
